# Measurements taken from patent publication US7405036B2, “Process for reducing pathogens in a biological sample and removing a sample pellet from a sample tube” (priority 2001, dated 2008).
# B1: soy-based trypsin inactivator: soy-based trypsin inhibitor product (Sigma Chemical Company) added to the 90% layer (protein, UniProt P01070 25-205, looked up)
# Trypsin inhibitor A: DFVLDNEGNPLENGGTYYILSDITAFGGIRAAPTGNERCPLTVVQSRNELDKGIGTIISSPYRIRFIAEGHPLSLKFDSFAVIMLCVGIPTEWSVVEDLPEGPAVKIGENKDAMDGWFRLERVSDDEFNNYKLVFCPQQAEDDKCGDIGISIDHDDGTRRLVVSKNKPLVVQFQKLDKESL
# Tests used:
# trypsin = assay: Dose-response of soy-based inhibitor on detachment of confluent somatic cell monolayers
# fresh bovine sperm = assay: Isolate gradient centrifugation with or without trypsin and soy-based trypsin inactivator, fresh bovine sperm; conditions: 10 μg/ml in 90% Isolate
molecule,measurement,setting,value
B1,minimal concentration to achieve complete inactivation of trypsin,trypsin,~10 µg/mL
same,"effect on bovine sperm motility, viability and acrosomal integrity",fresh bovine sperm,no detrimental effect
